Sequences with one replicate were seen in a single cluster, so their values are uncertain.
System: ATP
Assay: switch fluorescence ratio, 500 uM ATP over buffer (Cy3 cluster intensity, sum of 5 cycles each) (fold (ratio)); higher = stronger signal-on switching upon ATP binding; sequences stand for … in TCGTCGGCAGCGTCAGATGTGTATAAGAGACAGTTTTTTTTTTTTTTTTTTTTTTTTT…TC
Settings: aptamer strand: ATP DNA aptamer (quencher-CACCTGGGGGAGTATTGCGGAGGAAGG + anchor), 100 nM annealed; ATP concentration: 500 uM; one replicate
How it was run: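 For every switch-domain sequence, the fluorescence ratio is the mean of per-cluster values, each being summed target-cycle Cy3 intensity over summed buffer-cycle Cy3 intensity. Clusters outside 100-1000 RFU were excluded. On a modified Illumina MiSeq flow-cell, the Cy3-labelled switching-strand clusters were annealed to 100 nM quencher-labelled ATP aptamer, imaged in selection buffer and then after 15 min with 500 uM ATP at 22 °C. Five such cycles were run, with NaOH stripping and re-annealing between them.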
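Also: ATP exposure 15 min at 22 °C before imaging.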

Sequence	switch fluorescence ratio
TGACAACGCT	1.27
TTTAGTGTCC	1.08
TCCTTATTCT	0.967
CCTTGTTAAC	1.12
GGCACCCGAA	1.01
GCCCATTATA	1.01
CGGGTAAAGT	1.04
TCGGGGAAT	0.994
GGTCATAACA	1.04
GCAAATCATT	0.998
TACCCCTACG	1.42
TCATGAATGC	1.02
TAAGAGCGAC	1.03
GTCGATTGCC	1.02
CTTGAGTCTT	0.993
CTCACGATAA	1.45
TGCATTCTTC	0.979
CATATCGGGT	1.02
TGCATCTTTA	0.983
CTCGACGGTG	0.981
GAAATATAGC	0.995
ATCTCCAAAG	1.13
ACTGCTATCT	1.16

Sequence	switch fluorescence ratio
TGAGTTCCTA	1.03
ACACGAGTAG	1.03
TTGAGGTATC	0.966
GCGAAGTACA	1.1
GGTTCAGTTT	0.994
CTAGTCCTGC	0.975
GGTAAACCTT	1.07
TCCCATTAAT	1.02
GCCTATGTTG	1
GGGAGCGTTA	0.977
ACATATCACA	1.07
TTGGCCGTAA	1.11
TTCCCGCATT	1.2
TTGATTGT	0.996
AGTGAAATGA	0.976
GGTTGAATAA	0.945
CGGAAGATC	1.1
CTGCTATTAG	1.11
AAAGATCTTA	0.957
ACTTAAAATA	1.2
TCTCCATTCA	0.995
CCGTTTGTGT	1.06
GGGGGACCT	1.11

Sequence	switch fluorescence ratio
AACAGATGCT	0.99
CCCTTTTAGG	0.964
AGCACGACCA	1.64
ACCCCGTGCT	1.08
TACGAGTTTG	1.03
AAGGCCAATT	0.977
AGGAACGACC	0.974
GCCAGCACTC	1.28
AAATTAAACC	1.06
TCCGATTTGA	0.974
AATTGAGAG	0.959
AGGCGACGAG	1.01
CGTGCAGCGA	1.05
TAATGTAACT	0.994
CACCAATTCC	1.24
TCTAGGTCAC	1.03
TTACAAGCGC	0.979
TGGCGAAGAT	0.956
TGGGGCTGGG	0.989
AGTCAGCCGG	1.02
ACGCTGCGAC	1.71
ATCTTAGTAG	1.01
GGCCGGAAAG	1.02

Sequence	switch fluorescence ratio
AATAAGGCAG	0.984
GCCAGTGAAC	1.01
TTCGCAGGGG	3.04
AGGTTTAGCG	0.999
AATGAAGAGC	1.12
ATATGCAAGG	1.01
GGTAAAATTC	1
GGTAGGGATT	0.978
CGGATTGACT	1.01
TTGATCGAAC	1.05
AGGGAACGTC	0.946
GTACCCATGA	1.02
GGTAATATAA	1
ACCGTTACGG	0.98
ACTGCGTGTT	1.02
CAATAACTAA	1.05
CAGTTAGGCC	0.992
TCTCGAGTCA	0.971
TCGAACAAAA	1.03
GGAATAACGG	1.09
TCCGTGTTT	1.06
TCTTGACCCA	0.998
TGGGGCCGG	1.01

Sequence	switch fluorescence ratio
TTGCGGGGA	1.01
TAACATCCTC	1.07
TAGACGGCAC	1.8
ACCAGGACAG	1.01
GATACTCCTA	0.999
GGTGGGGCAT	0.989
AGATTAGGT	1.06
CTAGCTTGTC	1.06
AACGTATAAA	1.17
CGGAGAGGAA	1.03
TATATATCAT	0.971
CTGAGAGCCC	1.07
AGGAGTCGG	0.941
CTTTAAAGGC	1.06
GAGCCGTCCC	1.04
TAAATCACTC	1.31
GTATAAGCGA	1.02
TCGGAAGAGG	0.99
GTGAAGAACG	1.01
GGGAGCTTTG	1.02
ATGGCATCTG	0.955
GGCCGCCGGA	1
TCTCCACTCA	1.14

Sequence	switch fluorescence ratio
CGGTCTATGA	0.988
GGACCTAGTT	1.02
TGTCATAAGG	0.994
TCGGGACACA	1.06
ACACGGCCCT	1.07
TCTCTGAC	1.15
TTAACTCGCC	1.03
AGCGGGTGGT	1
ACGAGTTGT	0.986
TATTCCATT	0.974
GTCGCGTATC	0.949
TATTTAATTG	0.965
TGGAACCTCT	0.987
GGTAGTGCCA	0.989
GCGACTCTTT	1.01
GGGTACTGTT	1
TCTGAGTCAG	0.993
GACTACTATT	1.09
TTCTTTCTAA	0.957
AGGTGTAAAA	0.997
TGACCAGCTT	1
ACTGTCTAGT	0.97
TGCGTACA	0.993

Sequence	switch fluorescence ratio
TCAACGAAAA	1.09
GCTGCAAAGA	1.02
GGGCTGGGAC	1.11
ATTTATAAGG	0.996
TAGTGCCGAG	0.995
GATTTTTAAG	1.02
CATGCCACTG	0.963
GTGATGATAG	0.932
TTATGGTTGT	1.07
GATTCAATCC	0.982
GTGAAGCATT	1.02
CTCTTGTTGT	0.975
CTACGGACAT	1.36
CGGCCTCTGG	0.996
GTCCCAAATG	1.07
TTAACGGCAC	1.85
TACAGAGAG	0.986
AATCTCTGTG	0.963
CGAGGGAGTC	1.03
